# According to the supplement of paper PMC11880418:
# Where a name gives a salt, the structure may show the parent alone. The list shows a part of the results. The data scatter; read single values as rough.
# Assays:
# Experiment in all cases: ALDHbr (CSC) cell proportion score relative to DMSO vehicle (ratio to DMSO); breast (SUM159) / gastric (MKN45) / pancreatic (PANC1) / colon cancer lines; ALDHbr cells have high ALDH activity and are rich in cancer stem cells (CSC); higher = more CSC (ALDHbr) cells remaining
# Settings in all cases: 10 µM; 72 h
# [1] = test system: MKN45
# [2] = test system: PANC1
# [3] = test system: SUM159
# [4] = test system: T84
# 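Note: High-content imaging of ALDEFLUOR-stained cells with Hoechst-labelled nuclei in 384-well plates, triplicate wells, scored as Z-score against 0.1% DMSO vehicle, negative meaning fewer ALDHbr cells.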
Compound,ALDHbr [1],ALDHbr [2],ALDHbr [3],ALDHbr [4]
C#C[C@]1(O)CC[C@H]2[C@@H]3CCC4=CCCC[C@@H]4[C@H]3CC[C@@]21C [Lynestrenol],0.616,0.934,1.25,0.924
c1ccc2c(CC3=NCCN3)cccc2c1 [Naphazoline hydrochloride],0.984,0.908,0.974,0.996
Cc1c(NC(=O)c2cccnc2)c(=O)n(-c2ccccc2)n1C [Nifenazone],1.12,0.852,0.979,1.09
CN1CCN(CCCN2c3ccccc3Sc3ccc(C(F)(F)F)cc32)CC1 [Trifluoperazine dihydrochloride],0.589,1.01,0.506,0.0881
CC(C)C(=O)c1c(C(C)C)nn2ccccc12 [Ibudilast],0.902,0.913,1.46,0.972
CC(C(=O)O)c1cccc(Oc2ccccc2)c1 (stereo not drawn) [Fenoprofen calcium salt dihydrate],1.04,0.932,0.926,1.01
N=C(N)NCCN1CCCCCCC1 [Guanethidine sulfate],1.14,0.782,1.19,1.15
CNC(=C[N+](=O)[O-])NCCSCc1csc(CN(C)C)n1 [Nizatidine],1,0.847,1.19,0.913
c1cnc(N2CCN(Cc3ccc4c(c3)OCO4)CC2)nc1 [Piribedil hydrochloride],1.2,1.02,0.965,0.844
Cc1ccccc1OCC(O)CO (stereo not drawn) [Mephenesin],1.09,0.828,0.77,1.05
OCCOCCN1CCN(C(c2ccccc2)c2ccc(Cl)cc2)CC1 (stereo not drawn) [Hydroxyzine dihydrochloride],1.1,1.05,1.06,0.795
O=C(O)[C@H]1/C(=C/CO)O[C@@H]2CC(=O)N21 [Clavulanate potassium salt],1.17,1.04,0.897,0.914
Cn1c(=O)c2c(ncn2CC2OCCO2)n(C)c1=O [Doxofylline],1.01,0.869,1.1,0.971
CC(=O)Oc1cc(C(C)C)c(OCCN(C)C)cc1C [Moxisylyte hydrochoride],0.867,1.11,0.934,0.987
COc1cc2nc(N3CCN(C(=O)C4CCCO4)CC3)nc(N)c2cc1OC (stereo not drawn) [Terazosin hydrochloride],0.966,0.85,0.972,0.954
CCN(CC)CC#CCOC(=O)C(O)(c1ccccc1)C1CCCCC1 (stereo not drawn) [Oxybutynin chloride],0.68,0.801,0.835,1.07
CN1C(C(=O)Nc2ccccn2)=C(O)c2ccccc2S1(=O)=O [Piroxicam],1.04,0.855,1.05,0.886
C[C@]12CC[C@H]3[C@@H](CCC4=CC(=O)CC[C@@]43C)[C@@H]1CC[C@@H]2C(=O)CO [Deoxycorticosterone],0.454,0.764,0.713,0.839
COc1ccc([C@@H]2CC(=O)c3c(O)cc(O[C@@H]4O[C@H](CO[C@@H]5O[C@@H](C)[C@H](O)[C@@H](O)[C@H]5O)[C@@H](O)[C@H](O)[C@H]4O)cc3O2)cc1O [Hesperidin],1.09,0.861,1.03,1
CNc1ncnc2c1ncn2[C@@H]1O[C@H](CO)[C@@H](O)[C@H]1O [N6-methyladenosine],0.981,0.893,1.36,0.917
CN(C/C=C/C#CC(C)(C)C)Cc1cccc2ccccc12 [Terbinafine],0.729,0.947,0.872,1.08
CN1CCN(C2=Nc3cc(Cl)ccc3Nc3ccccc32)CC1 [Clozapine],1.17,0.791,0.565,0.869
C=CC(N)CCC(=O)O (stereo not drawn) [Vigabatrin hydrochloride],0.968,0.764,1.03,0.952
O=C1c2cccc3c2[C@H](CCC3)CN1[C@@H]1CN2CCC1CC2 [Palonosetron hydrochloride],0.959,1.02,1.21,0.799
O=C(O)/C=C/c1ccc(Cn2ccnc2)cc1 [Ozagrel hydrochloride],1.14,0.976,1.01,0.949
Clc1cccc(Cl)c1NC1=NCCN1 [Clonidine hydrochloride],0.969,0.965,0.867,0.912
CCn1cc(C(=O)O)c(=O)c2cc(F)c(N3CCN(C)CC3)cc21 [Pefloxacine],0.995,0.785,1.2,0.994
